Measured values published in the supplement of paper PMC7826260.
The list shows a part of the results. Cleavage of a single-stranded DNA pool by Rep nickase domains was read by sequencing for 1 h at 37 °C with 3 µM enzyme; only the middle of the 90-letter strands is printed. A value is the log2 ratio of uncut reads to the pool without enzyme; more negative means more cut, near 0 not cut, and no call is made. Counts are relative to all reads; uncut strands gain when others are lost, and binding without cutting may add a little.

Experiments:
Test in all cases: uncleaved DNA left, log2 of reads against the no-enzyme library (log2 ratio); higher = less cleavage (more negative = more Rep cleavage of the k-mer); sequences stand for … in CTCGTCCG…ACCGGAGA
[1] = tested on: T1, Rep nickase domain of Muscovy duck circovirus
T1 sequence (residues 1-111, tag not shown): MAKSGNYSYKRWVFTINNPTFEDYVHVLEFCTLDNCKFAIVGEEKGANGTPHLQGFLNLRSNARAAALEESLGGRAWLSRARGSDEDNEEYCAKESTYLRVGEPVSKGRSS
Description: (§1)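 A pool of 90-nt single-stranded DNAs with seven random bases just before the constant AC of the nick site (name = the seven bases) was cut by 3 µM recombinant His6-SUMO-tagged Rep nickase domain (300 nM DNA, 50 mM HEPES pH 8.0, 50 mM NaCl, 1 mM MnCl2, 1 h, 37 °C, three replicates). Uncut DNA was amplified and sequenced.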

[2] = tested on: T2, Rep nickase domain of banana bunchy top virus
T2 sequence (residues 1-94, tag not shown): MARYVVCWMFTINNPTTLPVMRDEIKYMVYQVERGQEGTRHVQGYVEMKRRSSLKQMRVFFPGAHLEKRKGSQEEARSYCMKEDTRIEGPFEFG
Description: as §1

[3] = tested on: T3, Rep nickase domain of cabbage leaf curl virus
T3 sequence (residues 1-116, tag not shown): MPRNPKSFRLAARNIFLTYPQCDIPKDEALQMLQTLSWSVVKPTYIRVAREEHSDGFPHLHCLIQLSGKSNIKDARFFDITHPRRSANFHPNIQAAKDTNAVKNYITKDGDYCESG
Description: as §1

[4] = tested on: T4, Rep nickase domain of chickpea chlorotic dwarf virus
T4 sequence (residues 1-124, tag not shown): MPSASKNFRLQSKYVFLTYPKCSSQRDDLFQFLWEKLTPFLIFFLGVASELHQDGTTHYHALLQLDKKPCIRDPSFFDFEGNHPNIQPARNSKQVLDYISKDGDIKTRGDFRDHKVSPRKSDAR
Description: as §1

[5] = tested on: T5, Rep nickase domain of faba bean necrotic yellows virus
T5 sequence (residues 1-98, tag not shown): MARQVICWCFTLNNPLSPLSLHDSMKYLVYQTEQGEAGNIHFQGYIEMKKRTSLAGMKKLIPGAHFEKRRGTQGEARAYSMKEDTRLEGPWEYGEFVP
Description: as §1

[6] = tested on: T6, Rep nickase domain of maize striate mosaic virus
T6 sequence (residues 1-117, tag not shown): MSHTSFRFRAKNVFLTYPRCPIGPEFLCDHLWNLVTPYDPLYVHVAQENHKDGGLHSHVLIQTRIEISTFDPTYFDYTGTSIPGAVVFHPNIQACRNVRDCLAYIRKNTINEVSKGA
Description: as §1

[7] = tested on: T7, Rep nickase domain of porcine circovirus 2
T7 sequence (residues 2-116, tag not shown): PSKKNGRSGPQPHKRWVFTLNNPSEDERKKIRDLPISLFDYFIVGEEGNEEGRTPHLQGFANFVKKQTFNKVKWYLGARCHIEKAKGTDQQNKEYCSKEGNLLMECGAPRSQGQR
Description: as §1

[8] = tested on: T8, Rep nickase domain of tomato golden mosaic virus
T8 sequence (residues 1-124, tag not shown): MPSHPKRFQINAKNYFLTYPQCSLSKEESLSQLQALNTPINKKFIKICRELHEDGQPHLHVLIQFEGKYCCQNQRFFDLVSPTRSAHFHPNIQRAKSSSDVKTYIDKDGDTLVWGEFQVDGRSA
Description: as §1

[9] = tested on: T9, Rep nickase domain of tomato yellow leaf curl virus
T9 sequence (residues 1-136, tag not shown): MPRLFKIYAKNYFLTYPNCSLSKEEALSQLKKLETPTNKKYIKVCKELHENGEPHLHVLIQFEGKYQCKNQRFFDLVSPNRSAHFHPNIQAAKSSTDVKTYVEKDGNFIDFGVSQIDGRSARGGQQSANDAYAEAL
Description: as §1

[10] = tested on: T10, Rep nickase domain of wheat dwarf virus
T10 sequence (residues 1-137, tag not shown): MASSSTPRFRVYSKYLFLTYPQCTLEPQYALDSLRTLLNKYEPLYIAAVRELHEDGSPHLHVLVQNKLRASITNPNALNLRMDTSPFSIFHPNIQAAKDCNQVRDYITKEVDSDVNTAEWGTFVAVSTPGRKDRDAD
Description: as §1

Sequence	uncleaved DNA left (log2) [1]	uncleaved DNA left (log2) [2]	uncleaved DNA left (log2) [3]	uncleaved DNA left (log2) [4]	uncleaved DNA left (log2) [5]	uncleaved DNA left (log2) [6]	uncleaved DNA left (log2) [7]	uncleaved DNA left (log2) [8]	uncleaved DNA left (log2) [9]	uncleaved DNA left (log2) [10]
CGAACCA	-0.0361	0.0234	-0.0807	-0.942	-0.0538	-0.256	-0.356	-0.0713	-0.0305	0.0189
CACGCCG	-0.0532	-0.0538	-0.863	-0.144	-0.0706	-0.768	0.17	0.0176	-0.0307	-0.113
TTAATGT	0.0452	-0.0729	0.222	-0.295	0.0483	-0.405	-0.0884	0.00187	0.0394	0.000362
GAGCTAA	-0.0677	-0.0533	-0.0468	0.327	-0.159	0.72	-0.592	-0.23	-0.116	-0.0766
TGGTGAT	0.0504	0.0523	0.419	1.52	-0.0433	1.93	-0.673	0.133	0.00387	0.0614
CCAGGTA	0.145	0.0294	0.412	0.91	0.17	1.25	0.101	0.174	-0.0217	0.0784
TGCGCCC	-0.0441	-0.0975	-0.0556	-0.25	-0.076	-0.416	0.0162	-0.0991	0.0372	-0.129
TTTGACT	-0.0255	0.0121	0.00611	-1.99	-0.0179	-0.11	-0.19	-0.121	0.0789	-0.0416
AGCGTCA	-0.0365	0.0891	-0.0232	0.279	0.0479	1.1	-0.232	0.0807	-0.0717	0.0444
CCGCGTC	0.0351	0.00333	-0.227	-0.473	0.11	-0.744	0.268	0.0634	0.05	-0.00258
TCCTATT	-3.38	-2.57	-1.23	-2.8	-0.255	-0.876	-3.59	-0.27	0.0493	-0.897
AGATGAC	0.0062	-0.148	-0.14	0.565	-0.0762	0.00308	0.0307	0.0116	-0.157	-0.0679
CGCAAGG	0.0583	0.0716	0.181	0.957	0.0165	0.64	0.1	0.106	-0.0133	0.0881
AGCGGCA	-0.121	-0.023	-0.034	0.58	-0.0672	1.23	0.0379	0.0215	-0.0285	-0.037
ATATTAC	-3.15	0.0307	-1.8	-2.64	0.0991	-1.74	-3.01	-0.346	0.0816	-0.511
